Data as given in PubChem BioAssay AID1030 (National Center for Advancing Translational Sciences (NCATS), 2008).
About 16,000 (7.3%) of roughly 220,000 compounds were called active. Inconclusive results, whose numbers are uncertain, are shown with a selection of clear calls. Calls follow the shape of the dose curve; as a rule, active = well fitted inhibition curve with a large enough effect (not every such curve was filed as active); inconclusive = small, poorly fitted or top-dose-only effect, or another doubt; inactive = no such curve, though single readings can be large or run the other way. No potency is given beside an inconclusive call; the fits are too rough.

molecular target: Aldehyde dehydrogenase 1A1 (Homo sapiens) (UniProt P00352); test: qHTS Assay for Inhibitors of Aldehyde Dehydrogenase 1 (ALDH1A1); settings: Purified ALDH1A1, NADH fluorescence, propionaldehyde substrate; series mostly up to 75.3 µM
UniProt P00352, sequence (P00352 whole entry, looked up): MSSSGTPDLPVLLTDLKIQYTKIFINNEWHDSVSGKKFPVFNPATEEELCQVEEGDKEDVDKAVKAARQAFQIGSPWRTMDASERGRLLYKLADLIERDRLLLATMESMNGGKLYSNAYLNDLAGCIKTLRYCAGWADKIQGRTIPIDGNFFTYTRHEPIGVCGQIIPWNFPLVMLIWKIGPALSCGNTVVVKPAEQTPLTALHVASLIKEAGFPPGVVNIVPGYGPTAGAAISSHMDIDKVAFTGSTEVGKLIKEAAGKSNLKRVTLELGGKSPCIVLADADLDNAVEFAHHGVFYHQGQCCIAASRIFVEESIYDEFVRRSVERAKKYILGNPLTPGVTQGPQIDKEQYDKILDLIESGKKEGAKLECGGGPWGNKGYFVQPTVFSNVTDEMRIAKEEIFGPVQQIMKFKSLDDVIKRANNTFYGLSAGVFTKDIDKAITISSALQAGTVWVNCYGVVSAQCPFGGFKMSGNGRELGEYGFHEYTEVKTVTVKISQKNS
Potency is read from the fitted curve at half-maximal effect; tags tell the direction and shape of the fitted curve.

| SMILES | Potency |
| --- | --- |
| COc1ccc(-c2[nH]ncc2CN2CCC(N3CCSCC3)CC2)c(F)c1 | inconclusive [inhibitor, partial curve] |
| Cc1ncc(/C=C2\C(=O)Nc3ccccc32)[nH]1 | inactive |
| COC(=O)CC(=O)Cc1nc(N)nc(Nc2ccc(C)c(C)c2)n1 | inactive |
| Cc1c(N=NC2=C(O)CC(C)(C)CC2=O)c(=O)n(-c2ccccc2)n1C | active: 10 µM |
| CCCc1nnc(NC(=O)CCC(=O)N2CCN(CCn3c(C)ccc3C)CC2)s1 | inconclusive [inhibitor, partial curve, poor fit] |
| CC(C(=O)NC(C)(C)C)N1C(=O)c2cccc3cccc(c23)C1=O (stereo not drawn) | inconclusive [inhibitor, partial curve] |
| O=C(COC(=O)c1cccc(NS(=O)(=O)/C=C/c2ccccc2)c1)Nc1ccccc1OC(F)F | inconclusive [inhibitor, single point] |
| CCNC(=O)COc1ccc(C=O)cc1OC | inconclusive [inhibitor, partial curve] |
| Cn1c(=O)c2c(nc(N3CCCCC3)n2C)n(C)c1=O | inconclusive [inhibitor, partial curve, poor fit] |
| c1ccc(CSc2ncccn2)cc1 | inactive |
| Cc1ccc(/C=C2\OC(=O)c3ccccc32)cc1 | inconclusive [inhibitor, partial curve] |
| N#Cc1c(N2C(=O)Nc3ccccc3N2O)sc2c1CCCCCC2 | inconclusive [inhibitor, partial curve] |
| Cc1cccc(C)c1NC(=O)CNc1ccccc1 | inconclusive [inhibitor, single point] |
| Cc1nn(Cc2ccccc2Cl)c(C)c1NC(=O)CCCn1nc(C)c([N+](=O)[O-])c1C | active: 15.8 µM |
| O=C(Nc1nncs1)c1ccc(S(=O)(=O)c2ccccc2)cc1 | inactive |
| COc1cc2cc(CN(Cc3nnnn3Cc3ccco3)C3CCCCC3)c(=O)[nH]c2cc1OC | inconclusive [inhibitor, partial curve] |
| Cc1cc(Cl)c(S(=O)(=O)NCc2ccncc2)cc1OCC(N)=O | inconclusive [inhibitor, single point] |
| Cc1ccc(S(=O)(=O)Nc2cccc(Oc3cnccn3)c2)cc1 | active: 7.94 µM |
| COc1ccccc1CNc1cc(-c2ccccc2C(F)(F)F)ncn1 | inactive |
| Cn1cccc1-c1nc2ccc(NC(=O)c3ccccc3)cc2[nH]1 | inactive |
| CCn1c(=O)cc(OCC(=O)Nc2ccc(OC)c(OC)c2)c2ccccc21 | active: 15.8 µM |
| Fc1ccc(Cn2c(SCc3ccc(F)c(C(F)(F)F)c3)nnc2C(F)(F)F)cc1 | inactive |
| CCOC(=O)CNC(=O)c1cc(C)oc1C | active: 0.0631 µM |
| c1ccc(-c2nc(-c3ccco3)n3ccccc23)cc1 | inactive |
| CN(C)c1ncc2nc(-c3cccs3)c(=O)n(-c3ccccc3)c2n1 | inconclusive [inhibitor, single point] |
| CC(=O)N(C(C)=O)N1C(=O)/C(=C/c2ccc(Cl)cc2)SC1=S | inconclusive [inhibitor, single point] |

| SMILES | Potency |
| --- | --- |
| O=C(CCc1ccccc1)c1nnc(-c2ccccc2)o1 | inactive |
| Cc1cc(-c2n[nH]c(=S)n2/N=C/C(Br)=C/c2ccccc2)n[nH]1 | active: 17.8 µM |
| S=C(NCCc1ccccc1)NN=C1CCCCCC1 | inactive |
| CCCC(C(=O)NC1CCCC1)N(C(=O)Cn1nnc(-c2ccc(C)o2)n1)c1ccccc1OC (stereo not drawn) | inactive |
| CCSc1nc2c(c(=O)[nH]c(=O)n2C)n1CC(O)COc1ccccc1C (stereo not drawn) | active: 28.2 µM |
| COc1cc(C(=O)O)cc(OC)c1OCc1cc(C(=O)O)oc1C | inactive |
| CC(=C1C(=O)c2ccccc2C1=O)N1CCN(C/C=C/c2ccccc2)CC1 | active: 8.91 µM |
| Cc1cc(C)c(NC(=O)C[C@H](CC(=O)O)c2cccc3ccccc23)c(C(=O)N2CCC3(CCCC3)CC2)c1 | inactive |
| O=S(=O)(c1ccc2ccccc2c1)N(CC(O)COCc1ccco1)c1ccccc1 (stereo not drawn) | inconclusive [inhibitor, single point] |
| c1ccc2nc(-c3nc4ccccc4[nH]3)ccc2c1 | inconclusive [inhibitor, partial curve] |
| N#CCCN(Cc1cccnc1)S(=O)(=O)c1ccc(S(=O)(=O)NC2CCCCC2)cc1 | inconclusive [inhibitor, single point] |
| CCCCCCC(=O)Nc1ccc(C(=O)N2CCCC2)cc1 | inconclusive [inhibitor, single point] |
| O=C(CSc1nc2ccccc2c(=O)[nH]1)c1ccc(O)c(O)c1 | inconclusive [inhibitor, single point] |
| COc1ccc(C2=NNC(c3ccco3)=Nc3ccc(F)cc32)cc1 | inactive |
| COc1cccc(CNC(=O)CCC2CCCN(c3cc(C)nc(N)n3)C2)c1 (stereo not drawn) | inactive |
| CCn1c(SCc2ccccc2)nnc1-c1ccc(S(=O)(=O)N2CCCCC2)cc1 | inconclusive [inhibitor, partial curve] |
| Oc1ccccc1-c1cc(C(F)(F)C(F)F)nc(-c2ccccc2)n1 | inactive |
| COc1ccc(CCNC(=O)CS(=O)(=O)c2cn(CC(=O)N3CCCC3)c3ccccc23)cc1OC | inconclusive [inhibitor, partial curve] |
| COc1cc(NC(=O)CSc2nnc(NC(C)C)s2)cc(OC)c1OC | inactive |
| Cc1nc(SCc2cccc(F)c2)[nH]c(=O)c1C#N | inactive |
| CCc1ccc2c(-c3cccc(Cl)c3)nc(=O)n(CC)c2n1 | inconclusive [inhibitor, single point] |
| O=C(CNS(=O)(=O)c1ccc(Br)s1)NCC1COc2ccccc2O1 (stereo not drawn) | inactive |
| CCn1c2ccc(C)cc2c2nnc(NN)nc21 | active: 25.1 µM |
| O=C(NCc1ccco1)c1cc2nc(-c3ccc4c(c3)OCO4)cc(C(F)(F)F)n2n1 | inconclusive [inhibitor, partial curve] |
| COc1ccc(-c2nc3ccccc3c(=O)n2NC(=S)N(C)C)cc1 | active: 3.98 µM |
| COc1ccc(-n2c(SCC(N)=O)nc3nc4c(cc3c2=O)COC(C)(C)C4)cc1 | active: 3.55 µM |

| SMILES | Potency |
| --- | --- |
| O=C1CCCC(=O)C1=C1SCCCS1 | inconclusive [inhibitor, single point] |
| Oc1ccc(-c2nc3ccccn3c2NCc2ccco2)cc1 | inconclusive [inhibitor, partial curve] |
| COc1ccc(C(=O)Cn2c(=O)c(CCC(=O)O)nn3c4ccccc4nc23)cc1OC | inconclusive [inhibitor, single point] |
| CC1CCCCN1C(=O)CSc1nnc(CSc2ncccn2)n1C (stereo not drawn) | inactive |
| Cn1c(N)c(C(=O)COC(=O)CCC2CCCCC2)c(=O)n(C)c1=O | inactive |
| Cc1cc2ncn(CCOc3ccccc3)c2cc1C | inactive |
| O=c1[nH]c(=S)[nH]nc1Cc1ccccc1 | inconclusive [inhibitor, single point] |
| COC(=O)Cc1c(C)c2ccc(OCC(=O)N3CCOCC3)cc2oc1=O | inconclusive [inhibitor, partial curve] |
| CCOC(=O)c1ccc(NC(=O)c2cccc(S(=O)(=O)N3c4ccccc4CC3C)c2)s1 (stereo not drawn) | inconclusive [inhibitor, partial curve] |
| O=C(CCCCCNC(=O)c1ccccc1)C[N+](=O)[O-] | active: 2.24 µM |
| Cc1cc2c3c(c1)C(C)CC(C)(C)N3C(=O)C2=O (stereo not drawn) | active: 0.158 µM |
| COc1ccc(C(=O)c2cn[nH]c2-c2cc(Cl)ccc2O)cc1 | inconclusive [inhibitor, single point] |
| Cc1ccc(/C=C/c2ccc(=O)n(Cc3ccccc3Cl)n2)cc1 | inconclusive [inhibitor, partial curve] |
| O=C1c2ccccc2C(=O)C12OC2c1ccc(Cl)cc1Cl (stereo not drawn) | active: 25.1 µM |
| CCCCSc1nc2c(c(=O)n1CC)SC(C)C2 (stereo not drawn) | inconclusive [inhibitor, single point] |
| CCNC(=O)C1CN(S(=O)(=O)c2ccccc2)CCN1S(=O)(=O)c1ccccc1 (stereo not drawn) | inconclusive [inhibitor, single point] |
| O=C(c1ccco1)N1CCN(C(=O)N2CCOCC2)CC1 | active: 31.6 µM |
| CC(C)N(Cc1ccccc1)C(=S)Nc1ccccc1F | inactive |
| Cn1c(=O)n(C)c2cc(NS(C)(=O)=O)ccc21 | inconclusive [inhibitor, single point] |
| O=C1C(=O)N(CCN2CCCCC2)c2ccccc21 | inconclusive [inhibitor, partial curve] |
| O=S(=O)(NC1CC1)c1ccc(S(=O)(=O)N2CCCC(c3nc(-c4cccnc4)no3)C2)cc1 (stereo not drawn) | inconclusive [inhibitor, single point] |
| CC1(C)CC(=O)c2cnc(N3CCc4ccccc4C3)nc2C1 | inconclusive [inhibitor, full curve] |
| Cc1ccc(OCCOc2ccc(Cl)cc2Cl)c([N+](=O)[O-])n1 | inactive |
| O=C(COC(=O)Cc1ccc(S(=O)(=O)N2CCOCC2)s1)NCc1ccc(Cl)cc1 | inconclusive [inhibitor, single point] |
| Cc1ccc(OCC(=O)N2CCCCC2)c(Br)c1 | inactive |
| CCC1OC(=O)C(C)[C@@H](O[C@H]2C[C@@](C)(OC)C(O)C(C)O2)C(C)[C@@H](O[C@@H]2OC(C)CC(N(C)C)C2O)[C@@](C)(O)CC(C)C2NC(COCCOC)O[C@H](C2C)[C@@]1(C)O (stereo partly drawn) | inactive |
